110 sequences from the supplement of paper PMC3724861 can be followed below.

The list shows a part of the results.

In this test the test system is T1, Caupolican (Caup) homeodomain DNA-binding domain.
T1 sequence: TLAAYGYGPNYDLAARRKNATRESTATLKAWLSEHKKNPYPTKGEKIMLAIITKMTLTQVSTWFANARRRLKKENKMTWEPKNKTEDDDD
Description: PBM E-score (8-mer, recovered from the published 9-mer minima) (E-score (dimensionless, -0.5 to 0.5)); Drosophila protein; higher = stronger relative binding preference, active = 0.31 or more. The method in brief: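 Caup's homeodomain DNA-binding domain (residues 214-303) was made by in vitro transcription and translation and applied at 100 nM to custom-designed protein binding microarrays. Each value is an enrichment score that gives relative binding preference for a short DNA word, with higher meaning stronger. The 8-mer values were recovered from published 9-mer scores, each of which was the minimum of its two constituent 8-mer scores. A cutoff of 0.31 marks candidate sites.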
In the case of ACGGGGAT, the “PBM E-score” value is inactive: -0.0623. The same measure for CAAACTGG: inactive: -0.0525; for GAGGTCCA: inactive: -0.153.

Turning to ACGCGAGC, the “PBM E-score” value is inactive: -0.157. The same measure for ATGAGAAG: inactive: 0.0124. Consider AGGCGCCT, for which the “PBM E-score” value is inactive: -0.214. The same measure for AGCTGTTG: inactive: 0.101. The same measure for TCGAGTAA: inactive: 0.107; for GCGACCCA: inactive: -0.183. Regarding CTTTCCTC, the “PBM E-score” value is inactive: -0.0229. In the case of GGAGACAA it was inactive: 0.112; in that of CCATCAGC, inactive: -0.0297; in that of CCCAATCC, inactive: -0.0855. The same measure for CCAGGTTC: inactive: -0.092; for AATCCTAT: inactive: 0.122. The same measure for GGCCAGCA: inactive: -0.207; for CAAAGGTG: inactive: 0.0189; for GCTGTGCA: inactive: -0.142. With CCCCCCGC, the “PBM E-score” value is inactive: -0.353. For GGCAGGCC, the “PBM E-score” value is inactive: -0.257. The same measure for AGAATAGG: inactive: 0.02; for AAAACGAC: inactive: 0.0761.

As for ATGCAGCG, the “PBM E-score” value is inactive: -0.164.

In the case of ACGTTCCG, the “PBM E-score” value is inactive: -0.0768.

Take CCTGCCAG: the “PBM E-score” value was inactive: -0.107. GTTCCGGA: the “PBM E-score” value is inactive: 0.0536. The same measure for AGTGGTAC: inactive: 0.189.

With ATGATCCG, the “PBM E-score” value was inactive: 0.0354. The same measure for AGAGGATA: inactive: 0.0175; for CGTAGATC: inactive: 0.00782. Consider ACTAGACA, for which the “PBM E-score” value is inactive: 0.235.

In the case of CAGCTATC, the “PBM E-score” value was inactive: 0.0134.

Regarding CCCCATCA, the “PBM E-score” value was inactive: -0.0951.

For ATCTAATA, the “PBM E-score” value was inactive: 0.194. In the case of AAAGACTA it was inactive: 0.0347; in that of CGTCCTAG, inactive: -0.0562. The same measure for AGCTTCGC: inactive: -0.139; for TATTGTGA: inactive: 0.146; for CAAGGGAG: inactive: 0.00805. For GCGGGAGC, the “PBM E-score” value is inactive: -0.322.

Regarding AAGCCGGT, the “PBM E-score” value was inactive: -0.0841. In the case of ATGTATGC it was inactive: 0.297; in that of CCGTACGC, inactive: -0.0853; in that of ATCCCCAT, inactive: -0.0588. Turning to AGTATGCA, the “PBM E-score” value was inactive: 0.0249.

In the case of AAGAGTTG, the “PBM E-score” value is inactive: 0.09.

Regarding GCGGACAA, the “PBM E-score” value was inactive: 0.183. For AGGGAGGG, the “PBM E-score” value was inactive: -0.195. For GGCTATCA, the “PBM E-score” value was inactive: -0.0844. In the case of AGAGGGAT it was inactive: -0.0872. Regarding AGTAGTGA, the “PBM E-score” value is inactive: 0.091. For the sequence CTCTACCA, the “PBM E-score” value is inactive: 0.0278. In the case of CACTCGAA it was inactive: 0.00952; in that of AGAATGAC, inactive: 0.0721; in that of ACCTCAGG, inactive: -0.132.

Regarding ACTCGCTG, the “PBM E-score” value was inactive: -0.0848. On to GTTCCAAC, for which the “PBM E-score” value is inactive: 0.0551. The same measure for ACCAATCG: inactive: 0.0658; for GTCCGGAC: inactive: -0.107. The same measure for CACCCGGC: inactive: -0.203. In the case of CTCGCCAG it was inactive: -0.191; in that of TAGTTACA, active: 0.311; in that of AAGTGAAT, inactive: 0.127.

On to CAGTCTTC, for which the “PBM E-score” value was inactive: -0.0481. The same measure for CAGAGGCG: inactive: -0.091; for GAGCGCAC: inactive: -0.178. Take GTCATATA: the “PBM E-score” value was inactive: 0.203. The same measure for ATCAGGCC: inactive: -0.0404. Turning to GAATTTCC, the “PBM E-score” value is inactive: 0.0654.

As to AACTAGAC, the “PBM E-score” value was inactive: 0.158.

In the case of CGTATACG, the “PBM E-score” value was inactive: 0.0954. Regarding AGCTCGAG, the “PBM E-score” value was inactive: -0.138. On to TGCCGCCA, for which the “PBM E-score” value was inactive: -0.161. In the case of GAAGGAAC it was inactive: -0.0306; in that of AATCAGAT, inactive: 0.177; in that of AAGTCGGA, inactive: -0.0333. For the sequence GTGAACTA, the “PBM E-score” value is inactive: 0.0654. For CTCTCGAA, the “PBM E-score” value is inactive: -0.0153. With ACCTACGG, the “PBM E-score” value was inactive: -0.144. For ACAAACTC, the “PBM E-score” value was inactive: 0.114.

Turning to AAAAATAC, the “PBM E-score” value is inactive: 0.101.

On to GGATATGA, for which the “PBM E-score” value was inactive: 0.0498. Take CGGAAGAG: the “PBM E-score” value is inactive: -0.148. As for GCTGAGCA, the “PBM E-score” value is inactive: -0.0568. The same measure for GAGCGACA: inactive: 0.246. Regarding CTTTAAGA, the “PBM E-score” value was inactive: -0.00042. The same measure for GAAAGTGC: inactive: -0.174; for CACAGTAA: inactive: 0.122; for GTTAACCA: inactive: 0.112. Take GCCCGCCC: the “PBM E-score” value is inactive: -0.288. The same measure for ATTATTCC: inactive: 0.0933; for ACTCACAT: inactive: 0.144; for GTGCAAGA: inactive: 0.019. In the case of ATGTGACG it was inactive: 0.0877; in that of ACGCAGAC, inactive: -0.0561; in that of ATGGGTGG, inactive: -0.165. For ACCGTTCA, the “PBM E-score” value was inactive: 0.0485. The same measure for ATAAAGGA: inactive: 0.00587; for ACATTTGG: inactive: 0.0197. In the case of GTAGCTGA it was inactive: -0.033. In the case of GCACAGAC it was inactive: -0.00079; in that of CGAAGGTA, inactive: 0.00636. In the case of AGACACAT, the “PBM E-score” value is inactive: 0.213. The same measure for CCCCGTCG: inactive: -0.29; for CTCGATAA: inactive: -0.0103; for AAAAGAAC: inactive: 0.0872. In the case of AAAATAAT it was inactive: 0.0993; in that of ACGGCATG, inactive: 0.0642. AGACACAG: the “PBM E-score” value is inactive: 0.18. In the case of CACCACGA it was inactive: -0.00261.
